Here are results for 14 compounds from ChEMBL document CHEMBL5308541, “MAIP: An Open-Source Tool to Enrich High-Throughput Screening Output and Identify Novel, Druglike Molecules with Antimalarial Activity” (ACS Med Chem Lett, 2023).

The whole screen tested about 150,000 compounds, of which about 540 (0.36%) showed an effect of 50% or more. Some of the results follow.

The test concerns Plasmodium falciparum. Nature of the test: Primary screen in NF54 nanoGlo assay, in single point, at 2uM, 72h; a lower Z score goes with more inhibition. The test is classed as functional, Erythrocyte. The note with it: timepoint 72 hour.
The term % Inhibition denotes the relative decrease from the control value, in per cent. Consider `Nc1ccc(N[C@H]2CCCN(CC3CC3)CC2)cn1`, for which the “% Inhibition” value is -7% and the Z score is 1.13.
Regarding `O=C(NC[C@H]1C[C@@H]2CCN1C[C@@H]2CN1CCN(C(=O)c2ccc3c(c2)OCO3)CC1)c1ccc2c(c1)OCO2`, the “% Inhibition” value is recorded as 3% and the Z score is listed as -0.46.
Take `CC(C)OC[C@@H](O)Cn1c(-c2cccnc2)noc1=O`: the “% Inhibition” value was -1% and the Z score is on record as 0.24.
On to `CN1CCC(N(C)c2ccccc2CNC[C@@H](O)c2cccc(Cl)c2)CC1`, for which the “% Inhibition” value worked out at 22% and the Z score is given as -4.82.
Consider `CS(=O)(=O)Cc1nc(CN2CCC[C@H](C(=O)c3ccc(F)cc3)C2)cs1`, for which the “% Inhibition” value is -14% and the Z score amounted to 2.75.
The matching figures for `Cc1ccc(NCC2CCN(C)CC2)nn1`: -14% and 2.4.
`C[C@@H](Cc1ccccc1)NCCc1ccc(N)cc1`: the “% Inhibition” value was -13% and the Z score is on record as 1.94.
Take `c1ccc(-c2ccc(CNC[C@@H]3CCCN4CCCC[C@H]34)s2)nc1`: the “% Inhibition” value is -1% and the Z score turned out to be 0.13.
On to `O=C(NC1COCC1N1CCCCC1)c1ccc(-c2cccc(O)n2)cc1` (stereo not drawn), for which the “% Inhibition” value is listed as -1% and the Z score is given as 0.17.
Regarding `C[C@@H](CN1CCN(C)CC1)NC(=O)N1CCC(Nc2ccccc2F)CC1`, the “% Inhibition” value is recorded as -2% and the Z score was determined as 0.37.
The matching figures for `Cc1[nH]c2ccccc2c1CC(=O)NC1COCC1N1CCCCC1` (stereo not drawn): 5% and -0.74.
With `O=C1NC2(CCCC2)C(=O)N1CCn1c(-c2cccnc2)noc1=O`, the “% Inhibition” value turned out to be 3% and the Z score is -0.51.
As for `CC(C)(C)c1ccc(CNC[C@H](O)c2ccc(F)cc2F)cc1`, the “% Inhibition” value is 94% and the Z score is -16.43.
For `O=C(N[C@@H]1CCC[C@@H]1N1CCC(O)C1)c1ccc2[nH]ccc2c1` (stereo partly drawn), the “% Inhibition” value is on record as -3% and the Z score was 0.42.
